# Measurements from article PMC5520852.
# Chains of the proteins cited; added tags and fusions are not shown.
# UniProt Q3TKT4: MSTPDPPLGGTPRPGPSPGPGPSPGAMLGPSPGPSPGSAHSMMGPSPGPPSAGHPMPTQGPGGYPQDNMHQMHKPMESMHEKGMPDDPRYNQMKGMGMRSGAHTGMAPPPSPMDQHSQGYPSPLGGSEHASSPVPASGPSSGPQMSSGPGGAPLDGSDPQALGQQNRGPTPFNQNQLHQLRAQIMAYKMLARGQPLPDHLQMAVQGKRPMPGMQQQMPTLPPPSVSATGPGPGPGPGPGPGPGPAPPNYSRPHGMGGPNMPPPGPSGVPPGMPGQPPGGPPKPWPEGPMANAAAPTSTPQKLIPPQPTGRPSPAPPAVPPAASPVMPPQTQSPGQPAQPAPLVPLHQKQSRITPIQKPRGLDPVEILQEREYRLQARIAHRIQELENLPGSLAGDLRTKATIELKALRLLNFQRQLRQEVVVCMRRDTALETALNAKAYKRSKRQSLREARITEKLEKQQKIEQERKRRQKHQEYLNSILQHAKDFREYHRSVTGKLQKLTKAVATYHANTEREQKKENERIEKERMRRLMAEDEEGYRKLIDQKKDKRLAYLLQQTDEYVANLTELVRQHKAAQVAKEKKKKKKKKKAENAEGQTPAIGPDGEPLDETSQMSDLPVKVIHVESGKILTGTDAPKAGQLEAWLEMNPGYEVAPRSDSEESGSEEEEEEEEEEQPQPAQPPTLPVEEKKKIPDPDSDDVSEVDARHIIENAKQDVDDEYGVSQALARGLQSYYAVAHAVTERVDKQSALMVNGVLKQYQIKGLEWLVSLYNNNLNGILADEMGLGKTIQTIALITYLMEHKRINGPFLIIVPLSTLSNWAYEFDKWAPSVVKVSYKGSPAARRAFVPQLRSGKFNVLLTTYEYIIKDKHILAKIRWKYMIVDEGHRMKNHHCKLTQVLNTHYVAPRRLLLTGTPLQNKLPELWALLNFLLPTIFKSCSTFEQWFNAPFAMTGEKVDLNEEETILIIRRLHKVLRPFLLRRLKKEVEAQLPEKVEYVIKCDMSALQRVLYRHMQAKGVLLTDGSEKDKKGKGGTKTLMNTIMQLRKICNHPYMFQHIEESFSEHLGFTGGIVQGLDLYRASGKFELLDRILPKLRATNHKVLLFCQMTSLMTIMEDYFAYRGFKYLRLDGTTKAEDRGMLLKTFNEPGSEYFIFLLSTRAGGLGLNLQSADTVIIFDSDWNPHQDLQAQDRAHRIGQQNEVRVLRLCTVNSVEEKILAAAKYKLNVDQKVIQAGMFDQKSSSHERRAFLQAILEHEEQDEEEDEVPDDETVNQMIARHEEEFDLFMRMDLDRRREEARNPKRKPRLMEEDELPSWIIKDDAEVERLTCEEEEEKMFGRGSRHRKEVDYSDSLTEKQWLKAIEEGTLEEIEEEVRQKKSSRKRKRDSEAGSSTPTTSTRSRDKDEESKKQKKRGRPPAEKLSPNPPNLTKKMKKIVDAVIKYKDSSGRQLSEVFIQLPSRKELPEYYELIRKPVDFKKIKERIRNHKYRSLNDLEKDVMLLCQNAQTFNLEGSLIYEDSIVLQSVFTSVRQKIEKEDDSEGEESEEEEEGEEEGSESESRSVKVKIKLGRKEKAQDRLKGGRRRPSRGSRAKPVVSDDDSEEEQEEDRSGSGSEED
# UniProt Q99JR8: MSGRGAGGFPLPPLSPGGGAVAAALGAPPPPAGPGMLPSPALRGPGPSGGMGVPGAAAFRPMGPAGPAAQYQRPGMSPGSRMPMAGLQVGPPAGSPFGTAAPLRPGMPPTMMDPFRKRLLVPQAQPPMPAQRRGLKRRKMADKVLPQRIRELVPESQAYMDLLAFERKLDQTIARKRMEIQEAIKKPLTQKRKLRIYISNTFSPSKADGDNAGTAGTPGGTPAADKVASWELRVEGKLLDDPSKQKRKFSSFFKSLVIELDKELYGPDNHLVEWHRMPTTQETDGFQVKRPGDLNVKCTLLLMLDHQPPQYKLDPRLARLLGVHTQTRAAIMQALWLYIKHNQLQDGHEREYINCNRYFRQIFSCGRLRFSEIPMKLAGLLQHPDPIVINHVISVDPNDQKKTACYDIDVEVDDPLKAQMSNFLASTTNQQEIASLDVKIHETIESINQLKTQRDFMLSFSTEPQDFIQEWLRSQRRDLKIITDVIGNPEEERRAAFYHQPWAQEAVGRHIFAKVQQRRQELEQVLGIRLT
# UniProt Q61466: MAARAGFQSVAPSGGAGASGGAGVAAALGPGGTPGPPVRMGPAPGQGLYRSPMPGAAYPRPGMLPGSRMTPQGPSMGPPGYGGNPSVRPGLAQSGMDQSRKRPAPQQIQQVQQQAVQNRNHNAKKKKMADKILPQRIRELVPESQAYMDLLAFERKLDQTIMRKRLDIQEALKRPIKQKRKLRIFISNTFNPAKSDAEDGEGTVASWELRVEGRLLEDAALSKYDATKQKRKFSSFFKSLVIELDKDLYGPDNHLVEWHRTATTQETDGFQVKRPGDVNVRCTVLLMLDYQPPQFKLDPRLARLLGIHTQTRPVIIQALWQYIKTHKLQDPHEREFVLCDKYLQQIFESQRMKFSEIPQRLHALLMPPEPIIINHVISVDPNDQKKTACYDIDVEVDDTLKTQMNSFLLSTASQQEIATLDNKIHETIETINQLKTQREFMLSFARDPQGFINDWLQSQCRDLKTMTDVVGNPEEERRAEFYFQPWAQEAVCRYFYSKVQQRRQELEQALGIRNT
# UniProt Q6P9Z1: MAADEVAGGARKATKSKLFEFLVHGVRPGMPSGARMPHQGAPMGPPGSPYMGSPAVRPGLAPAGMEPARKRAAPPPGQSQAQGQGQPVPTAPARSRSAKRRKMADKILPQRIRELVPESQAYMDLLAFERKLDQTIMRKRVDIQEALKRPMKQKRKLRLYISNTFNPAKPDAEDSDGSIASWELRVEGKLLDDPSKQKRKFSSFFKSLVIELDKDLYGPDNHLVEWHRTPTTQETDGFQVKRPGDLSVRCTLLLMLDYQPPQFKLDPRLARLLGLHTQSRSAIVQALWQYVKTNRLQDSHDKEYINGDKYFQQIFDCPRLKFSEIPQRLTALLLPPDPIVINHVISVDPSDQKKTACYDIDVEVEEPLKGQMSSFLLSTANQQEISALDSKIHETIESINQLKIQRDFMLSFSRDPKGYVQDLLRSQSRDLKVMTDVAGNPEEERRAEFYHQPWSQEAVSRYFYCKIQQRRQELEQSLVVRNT
# Results are given in words; binding and its absence hold for the method and conditions named. Binding seen in cells or lysates may run through a third protein. Some entries that bind do so weakly or less than the wild type.
# How the values were obtained:
# [1] = molecular target: Brg1 (mouse (endogenous in TTFs)) (UniProt Q3TKT4); test: co-IP; Brg1-bound Baf60a and Baf60c in control and Baf60b-deficient cells (Supplementary Figure S13A); the precipitating antibody is not given
# [2] = molecular target: HA-tagged Baf60b (full length) (UniProt Q99JR8); test: co-IP; nuclear lysates of TTFs transduced with HA-tagged Baf60b or a mutant, with or without 3TF; immunoprecipitated with an HA antibody or control IgG at 4 °C overnight, Protein G Dynabeads; lysis buffer 50 mM Tris-HCl pH 7.4, 150 mM NaCl, 1 mM EDTA, 1% Triton X-100, 0.1% NP40; immunoblot
binding [1],binding [2],Substance
binds,no binding,Baf60a (from UniProt Q61466 1-515)
binds,no binding,Baf60c (from UniProt Q6P9Z1 1-483)
,binds,Brg1 (from UniProt Q3TKT4 1-1613)
